These results are taken from article PMC4336329 (PLoS ONE, 2015).

Screen size: about 310,000 compounds; about 14,000 (4.5%) showed an effect of 50% or more. The effect is printed as a negative number. This is one part of the list.
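Note: peak tail current of the secondary pulse compared with the same well before compound.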

The target in this experiment is human ether-à-go-go-related gene (hERG) potassium channel (human, UniProt Q12809). The experiment can be described thus: primary screen, population patch clamp on CHO cells stably expressing hERG.
Chain of human ether-à-go-go-related gene (hERG) potassium channel (Q12809 whole entry, looked up): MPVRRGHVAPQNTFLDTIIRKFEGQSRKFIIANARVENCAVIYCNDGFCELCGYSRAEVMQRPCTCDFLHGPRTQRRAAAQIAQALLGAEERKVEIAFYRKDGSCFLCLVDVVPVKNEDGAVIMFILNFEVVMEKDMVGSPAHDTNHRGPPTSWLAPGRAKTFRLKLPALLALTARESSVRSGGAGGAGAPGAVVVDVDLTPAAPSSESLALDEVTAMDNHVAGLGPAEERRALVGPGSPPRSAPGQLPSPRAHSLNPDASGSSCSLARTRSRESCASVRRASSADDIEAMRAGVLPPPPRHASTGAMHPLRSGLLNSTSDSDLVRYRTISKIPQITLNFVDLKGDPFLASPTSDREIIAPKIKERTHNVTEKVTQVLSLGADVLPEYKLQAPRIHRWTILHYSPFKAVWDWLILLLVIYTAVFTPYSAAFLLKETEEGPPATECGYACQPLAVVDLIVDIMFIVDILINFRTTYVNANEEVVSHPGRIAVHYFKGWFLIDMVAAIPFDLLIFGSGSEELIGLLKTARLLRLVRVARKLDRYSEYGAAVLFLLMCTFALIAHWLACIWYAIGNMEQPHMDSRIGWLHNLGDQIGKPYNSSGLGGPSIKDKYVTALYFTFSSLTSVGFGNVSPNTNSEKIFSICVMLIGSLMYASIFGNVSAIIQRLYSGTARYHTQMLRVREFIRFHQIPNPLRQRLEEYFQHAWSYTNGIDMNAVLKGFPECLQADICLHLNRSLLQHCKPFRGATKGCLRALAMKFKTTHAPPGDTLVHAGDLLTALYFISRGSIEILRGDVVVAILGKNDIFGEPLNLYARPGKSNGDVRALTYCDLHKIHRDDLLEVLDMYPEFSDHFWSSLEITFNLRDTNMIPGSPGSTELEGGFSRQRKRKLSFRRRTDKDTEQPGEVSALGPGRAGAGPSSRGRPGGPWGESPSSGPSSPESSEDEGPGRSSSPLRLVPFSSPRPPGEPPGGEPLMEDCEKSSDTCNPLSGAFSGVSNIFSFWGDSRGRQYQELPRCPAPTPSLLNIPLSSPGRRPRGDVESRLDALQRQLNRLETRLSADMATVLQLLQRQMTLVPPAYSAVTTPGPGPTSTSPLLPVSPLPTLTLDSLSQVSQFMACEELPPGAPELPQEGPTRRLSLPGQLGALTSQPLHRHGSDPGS
For `COc1cc2c(cc1OC)CN(C(=S)Nc1ccc(Cl)cc1)CC2`, the “hERG current change (%, negative = inhibition) at 10uM” value was 20.1%.

As to `Cc1ccc(C)c(Cn2c(CO)nc3ccccc32)c1`, the “hERG current change (%, negative = inhibition) at 10uM” value is on record as -6.43%.

Take `O=C(NC1CC2CCCC(C1)N2Cc1ccccc1)c1cccc(Cl)c1` (centres unmarked): the “hERG current change (%, negative = inhibition) at 10uM” value was -57.9%.

`O=c1c(-c2ccc(O)cc2)coc2cc(OC3OC(CO)C(O)C(O)C3O)cc(O)c12` (centres unmarked): the “hERG current change (%, negative = inhibition) at 10uM” value is reported as 5.05%.

Consider `Cc1ccccc1-c1ncc(CN2CCN(C3CCCC3)C(CCO)C2)cn1` (centres unmarked), for which the “hERG current change (%, negative = inhibition) at 10uM” value is given as -25.8%.

Take `O=C(NCC(c1ccco1)N1CCOCC1)c1ccc(F)cc1` (centres unmarked): the “hERG current change (%, negative = inhibition) at 10uM” value stood at 3.81%.

Consider `NNC(=O)c1cc2sccc2s1`, for which the “hERG current change (%, negative = inhibition) at 10uM” value is 13.2%.

In the case of `C=CCN1C(=O)C2C(C(=O)NC)C3(C)C=CC2(O3)C1C(=O)NCc1ccc(OC)cc1` (centres unmarked), the “hERG current change (%, negative = inhibition) at 10uM” value amounted to 5.92%.

As for `CCOc1ccc(/C=N/NC(=O)c2[nH]ncc2Br)c(O)c1`, the “hERG current change (%, negative = inhibition) at 10uM” value was 4.05%.

On to `Cc1ccccc1N1CCN(C2=NC(=O)/C(=C\c3cccs3)S2)CC1`, for which the “hERG current change (%, negative = inhibition) at 10uM” value is reported as -10.8%.

`CC(NC(=O)c1cccc(F)c1)C1CC2CCC1C2` (centres unmarked): the “hERG current change (%, negative = inhibition) at 10uM” value was -3.54%.

With `O=C1CSC(c2cccc([N+](=O)[O-])c2)N1c1c(F)cccc1F` (centres unmarked), the “hERG current change (%, negative = inhibition) at 10uM” value is given as -2.64%.

Turning to `Cc1ccc(CN2CCN(Cc3cccc(C)n3)CC2CCO)cc1` (centres unmarked), the “hERG current change (%, negative = inhibition) at 10uM” value is reported as -40.2%.

As to `O=C(NC1CCCCC1)C(c1cccnc1)N(C(=O)CCl)c1ccc(F)cc1` (centres unmarked), the “hERG current change (%, negative = inhibition) at 10uM” value turned out to be 3.93%.

In the case of `Cc1ccc(N2C(=O)C(CN3CCCC3)C2c2ccccc2)cc1` (centres unmarked), the “hERG current change (%, negative = inhibition) at 10uM” value was -78.5%.

Turning to `Cc1ccc2[nH]cc(CCNC(=O)c3cccnc3)c2c1`, the “hERG current change (%, negative = inhibition) at 10uM” value is -30.5%.

Turning to `CCS(=O)(=O)N1Cc2ccccc2CC1C(=O)N(C)Cc1ccc(OC)cc1OC` (centres unmarked), the “hERG current change (%, negative = inhibition) at 10uM” value is 16.9%.

For `COC(=O)c1ccccc1NC(=O)CSc1nnc(COc2cccc(OC)c2)n1C`, the “hERG current change (%, negative = inhibition) at 10uM” value is on record as -35%.

For `Cc1cc([N+](=O)[O-])nn1CC(=O)N/N=C/c1ccccc1Br`, the “hERG current change (%, negative = inhibition) at 10uM” value is listed as 7.44%.

In the case of `O=C(NCCC(=O)N(CCc1ccccc1)Cc1ccccc1)c1ccccc1Cl`, the “hERG current change (%, negative = inhibition) at 10uM” value was -72.9%.

In the case of `COc1cc2c(cc1OC)C(C)N(C(=O)c1sc(-c3cnccn3)nc1C)CC2` (centres unmarked), the “hERG current change (%, negative = inhibition) at 10uM” value was -4.52%.

As for `COc1ccccc1CCNC(=O)CCn1c(=O)c2cccn2c2ccc(F)cc21`, the “hERG current change (%, negative = inhibition) at 10uM” value is on record as 5.9%.

With `COc1ccc(-c2cc(C(=O)Nc3nc4c(C)cccc4s3)c3ccccc3n2)cc1OC`, the “hERG current change (%, negative = inhibition) at 10uM” value is reported as -5.91%.

Consider `CC1Sc2ccc(S(=O)(=O)CCC(=O)Nc3cc(F)ccc3F)cc2NC1=O` (centres unmarked), for which the “hERG current change (%, negative = inhibition) at 10uM” value is -29.1%.

Regarding `O=C(c1cccnc1)N1CCN(C/C=C/c2ccccc2)CC1`, the “hERG current change (%, negative = inhibition) at 10uM” value is reported as 15.1%.

Turning to `CC(Oc1ccc2c3c(c(=O)oc2c1)CCCC3)C(=O)NCCN1CCOCC1` (centres unmarked), the “hERG current change (%, negative = inhibition) at 10uM” value was 59.8%.

As for `c1cnc2c(OCc3nc4ccccc4[nH]3)cccc2c1`, the “hERG current change (%, negative = inhibition) at 10uM” value is reported as -0.178%.

`Cc1ccc(S(=O)(=O)CCC(=O)c2cccc([N+](=O)[O-])c2)cc1`: the “hERG current change (%, negative = inhibition) at 10uM” value is recorded as 7.64%.

As for `COc1ccccc1OCCNc1cc(N2CCCCC2)ccc1[N+](=O)[O-]`, the “hERG current change (%, negative = inhibition) at 10uM” value amounted to 8.25%.

In the case of `COc1ccc(C)cc1NC(=O)CSc1nc(=O)n(CCCN2CCOCC2)c2c1CCCC2`, the “hERG current change (%, negative = inhibition) at 10uM” value is listed as -28.6%.

Consider `Cc1cccc(C)c1OCC(O)CNS(=O)(=O)c1ccccc1C(=O)N1CCCCC1` (centres unmarked), for which the “hERG current change (%, negative = inhibition) at 10uM” value is on record as -10.9%.

As to `Nc1nnc(SCc2nnc(-c3ccccc3)o2)s1`, the “hERG current change (%, negative = inhibition) at 10uM” value was -1.84%.

As to `CNC(=O)COC(=O)c1ccc(Cl)c(S(=O)(=O)N2CCCC2)c1`, the “hERG current change (%, negative = inhibition) at 10uM” value is reported as 3.39%.

In the case of `Cc1ccccc1NC(=O)CSc1nc(O)cc(=O)n1C`, the “hERG current change (%, negative = inhibition) at 10uM” value is -1.28%.

Take `CN(Cc1cnccn1)Cc1nc(Cc2ccccc2Cl)no1`: the “hERG current change (%, negative = inhibition) at 10uM” value stood at 7.22%.

As to `O=C(CCc1ccccn1)N1CCCC(N2CCN(c3cccc(C(F)(F)F)c3)CC2)C1` (centres unmarked), the “hERG current change (%, negative = inhibition) at 10uM” value was -68.2%.

Turning to `CCOC(=O)c1c(NC(=O)CN2CCOCC2)sc2c1CC(C)(C)OC2`, the “hERG current change (%, negative = inhibition) at 10uM” value was -13.4%.

In the case of `O=C(c1cc(-c2ccccc2)on1)N1CCN(c2ccccc2)CC1`, the “hERG current change (%, negative = inhibition) at 10uM” value worked out at 15.9%.

With `O=C(CNC(=O)c1ccco1)OCC(=O)c1ccc([N+](=O)[O-])cc1`, the “hERG current change (%, negative = inhibition) at 10uM” value stood at 11.9%.

In the case of `CCOc1ccccc1OCC(=O)NNC(=S)NC1CCCCC1`, the “hERG current change (%, negative = inhibition) at 10uM” value was determined as 14%.

On to `Cc1ccc(C)c(CSC2=NCCN2C(=O)Cc2ccc([N+](=O)[O-])cc2)c1`, for which the “hERG current change (%, negative = inhibition) at 10uM” value was -4.06%.

With `CN1CCN(/N=C/c2ccc(-c3ccc([N+](=O)[O-])cc3Cl)o2)CC1`, the “hERG current change (%, negative = inhibition) at 10uM” value is on record as -46.2%.

As for `CCCCN(C(=O)CSc1nn(-c2ccc(F)cc2)c(=S)s1)c1c(N)n(CCCC)c(=O)[nH]c1=O`, the “hERG current change (%, negative = inhibition) at 10uM” value is recorded as -11.8%.

In the case of `Cc1cccc(NC(=O)CSCC(=O)N2CCCc3ccccc32)c1`, the “hERG current change (%, negative = inhibition) at 10uM” value was 5.8%.
